The BET-seq Pho4 binding data (Le et al. 2018)
Some of the results follow. The energies were worked out here from pooled read counts, against the library average; single values are noisy.

Molecular target: T1, Pho4 (S. cerevisiae) (UniProt P07270)
T1 sequence: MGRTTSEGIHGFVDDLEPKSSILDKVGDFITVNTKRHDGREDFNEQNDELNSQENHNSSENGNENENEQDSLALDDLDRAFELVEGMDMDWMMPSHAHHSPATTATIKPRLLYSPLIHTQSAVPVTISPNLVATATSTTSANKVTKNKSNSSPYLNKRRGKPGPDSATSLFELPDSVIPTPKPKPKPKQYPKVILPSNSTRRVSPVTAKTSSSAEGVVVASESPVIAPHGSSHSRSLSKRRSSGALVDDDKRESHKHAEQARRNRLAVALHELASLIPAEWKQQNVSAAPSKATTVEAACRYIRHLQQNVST
Experiment: relative binding free energy (BET-seq); higher = weaker binding
Conditions: reference: library average

Relative binding free energy, 0.25 kcal/mol:
GGGAACACGTGATTTA
ATTTTCACGTGTGTAG
GGGATCACGTGCGATT
TCGCTCACGTGAGGGG

Relative binding free energy, 0.16 kcal/mol:
AGCGTCACGTGATGGG
TGTATCACGTGTTACA
GTTTACACGTGGCTGT
GGAGTCACGTGCAGTT
TTTTCCACGTGACGTG

Relative binding free energy, -0.01 kcal/mol:
TATAGCACGTGTTTCA
ACGGACACGTGGGTTG
ATGATCACGTGGTTTG
GGTAGCACGTGCATGG

Relative binding free energy, -0.07 kcal/mol:
TGTAGCACGTGCAATG
GTTGGCACGTGGTGCT
GGTACCACGTGGGTGG

Relative binding free energy, 0.07 kcal/mol:
TGAATCACGTGTCGGT
ATGAACACGTGTAGTT
GGCTGCACGTGATAGG
GGAGGCACGTGGAGTC

Relative binding free energy, 0.1 kcal/mol:
GGGGACACGTGTAGTC
CGTGTCACGTGTAGGG
GTGAACACGTGTCGTT
GATTGCACGTGTGAAG
CGTCTCACGTGCGGGT

Relative binding free energy, 0.35 kcal/mol:
GGTGACACGTGAGGTC

Relative binding free energy, 0.29 kcal/mol:
GGGATCACGTGTGCAA
GATGACACGTGATGTA

Relative binding free energy, -0.04 kcal/mol:
GGTTACACGTGGTCAA
GTATACACGTGTAGTA
TTGGGCACGTGTGTGT
CTGTGCACGTGTATGG

Relative binding free energy, 0.01 kcal/mol:
GTAGTCACGTGGCTTT
CACGGCACGTGTGGTA
ATAGACACGTGGTAAG

Relative binding free energy, -0.08 kcal/mol:
GTGGACACGTGCGTGG

Relative binding free energy, 0.12 kcal/mol:
ATATGCACGTGATTAT
TATGTCACGTGATCAG
ACAATCACGTGTTGGT
TAGGACACGTGGTGAA

Relative binding free energy, 0.34 kcal/mol:
TTGGTCACGTGAGGCA

Relative binding free energy, 0.11 kcal/mol:
GGCGTCACGTGTGGAG
TGAAGCACGTGTAAAT
TAAATCACGTGTCGGT

Relative binding free energy, -0.24 kcal/mol:
ACTGGCACGTGGTTGG

Relative binding free energy, -0.29 kcal/mol:
ATCCGCACGTGGGTGG

Relative binding free energy, 0.19 kcal/mol:
GGTCTCACGTGCCGGG
GTGGTCACGTGAAAAG
TGGTGCACGTGACGGC
CTTTTCACGTGGTTGA

Relative binding free energy, 0.05 kcal/mol:
GGTCACACGTGCGGAG
TTAATCACGTGGTTTG
TTGCACACGTGTTTTG
CGTGTCACGTGGTTTG
AAGAGCACGTGAGTGT

Relative binding free energy, -0.15 kcal/mol:
TTAGCCACGTGGGGAG

Relative binding free energy, 0.39 kcal/mol:
GCGGTCACGTGATGTT

Relative binding free energy, 0.2 kcal/mol:
TACATCACGTGTATGG
TTTCTCACGTGTAGTG

Relative binding free energy, 0.06 kcal/mol:
GGTTACACGTGCGTGC
AGTTACACGTGTATTG
TTGCTCACGTGGTGCT
TTATACACGTGTAATA
TTGATCACGTGTGGCA

Relative binding free energy, 0.46 kcal/mol:
GCTTTCACGTGAAGTG
CGTTTCACGTGGAGTC

Relative binding free energy, 0.38 kcal/mol:
GAGGACACGTGAGTTG
GAATTCACGTGTTAGT
CGATTCACGTGCGTGA

Relative binding free energy, 0.22 kcal/mol:
GTTTTCACGTGCTGGA
TGGATCACGTGTTTTT
AGTTTCACGTGTGCTA
ATATTCACGTGTTTGT

Relative binding free energy, -0.02 kcal/mol:
TGTAACACGTGTCATG
GGAGTCACGTGGGGAG
TATGTCACGTGTATCT
ATAGCCACGTGTTGGT
TACGTCACGTGGTGGC
TAGCACACGTGGGTAT

Relative binding free energy, 0.4 kcal/mol:
TGCGACACGTGAATTT
GGTTTCACGTGGGAGA

Relative binding free energy, -0.35 kcal/mol:
CTTGCCACGTGGGGTG

Relative binding free energy, 0.3 kcal/mol:
GTAGTCACGTGAATGT

Relative binding free energy, -0.1 kcal/mol:
AGTTGCACGTGCTATG
GGAGACACGTGTGCGT
GGGCGCACGTGGAGAT
AAGTGCACGTGCGGGC

Relative binding free energy, -0.18 kcal/mol:
TTAAGCACGTGCATGT

Relative binding free energy, 0.24 kcal/mol:
GGGCTCACGTGGGCTA
TTGCTCACGTGAGGGT
ATTCGCACGTGAGATG
CATTTCACGTGATAGT
TTATTCACGTGGAAGA

Relative binding free energy, 0.03 kcal/mol:
CGGTGCACGTGCTATT
TAGTGCACGTGATATG
TTGAGCACGTGTAGTA
CTTGGCACGTGTGGAG

Relative binding free energy, -0.09 kcal/mol:
TGGAGCACGTGCTGGC
GTAAGCACGTGGTGTC
TGTCACACGTGGGTAA
GTACGCACGTGTTAGG

Relative binding free energy, 0.28 kcal/mol:
GAGGACACGTGAAGTT
TAGTTCACGTGTCGGG
TTGTTCACGTGGCAAT
TGGGCCACGTGAAGTT

Relative binding free energy, -0.06 kcal/mol:
CAGGGCACGTGTGGCT
TCATACACGTGGTAGG
TTCAGCACGTGCCGGG
GAATGCACGTGCGGGG
AACGGCACGTGGGGAT

Relative binding free energy, 0.31 kcal/mol:
GGTATCACGTGTTGTG
TTGTTCACGTGAGATA

Relative binding free energy, -0.28 kcal/mol:
GTGCGCACGTGGTTAG

Relative binding free energy, -0.03 kcal/mol:
TGTTGCACGTGCTGCT
GTTAACACGTGGGTTG
TATGGCACGTGGCTTT
TTTGTCACGTGGTTCA
AATGTCACGTGCGCGT
ATATCCACGTGTAGGT

Relative binding free energy, -0.12 kcal/mol:
AGGGTCACGTGCGGAG
TAAAGCACGTGGTGTC

Relative binding free energy, 0.02 kcal/mol:
CAGGTCACGTGGGAGT
AAGTACACGTGGCAGG
CATATCACGTGGTTTG
GTTGCCACGTGTTGTA
CGGGCCACGTGAAGGG
GTCTGCACGTGTTGTC

Relative binding free energy, -0.11 kcal/mol:
AGTAACACGTGTATGG

Relative binding free energy, 0.45 kcal/mol:
GGTTTCACGTGGAATC

Relative binding free energy, -0.21 kcal/mol:
TCGAGCACGTGGGTTA
GTACGCACGTGGGTTA
CGGGGCACGTGCTGGT
CGGGGCACGTGCTAGT

Relative binding free energy, -0.14 kcal/mol:
TGAAGCACGTGGTCTG
GGGGGCACGTGGCTTA
GGGCCCACGTGGGTGT
TATAGCACGTGGTGTT
AATGACACGTGGGGGA

Relative binding free energy, 0.04 kcal/mol:
TGCTACACGTGGTGAG
GTCAACACGTGGGGAG
TTGGTCACGTGCTGCA
GAATGCACGTGGGTTC
TTTAGCACGTGACGTA
ATTCGCACGTGAGGAG
AGGAACACGTGTTGTA
TATATCACGTGTTGAG

Relative binding free energy, 0.36 kcal/mol:
AAGGTCACGTGATAAG
GTTTTCACGTGACTAT

Relative binding free energy, 0.33 kcal/mol:
GTTTTCACGTGCGTTA
CTGTTCACGTGAGTAG
TGGTTCACGTGACTGA

Relative binding free energy, 0.27 kcal/mol:
TTGTTCACGTGTAGGC
AGCTTCACGTGTGAGT

Relative binding free energy, 0.32 kcal/mol:
TTGTACACGTGAATTA
GAGCTCACGTGGGGAT
TTTTTCACGTGTTAGG

Relative binding free energy, 0.57 kcal/mol:
GGGTTCACGTGAATTT

Relative binding free energy, 0.15 kcal/mol:
TGGGTCACGTGACTGA
GCGTGCACGTGTGGCA
GTACTCACGTGGTTTG
ATGATCACGTGGGTAA

Relative binding free energy, 0.08 kcal/mol:
TAAGTCACGTGTCAGG
TAAGTCACGTGTCTAG
CGTATCACGTGCGGGT
TGGGTCACGTGAGCAG
GTTCGCACGTGTGGGT

Relative binding free energy, 0.41 kcal/mol:
GATTTCACGTGGCATG

Relative binding free energy, -0.05 kcal/mol:
GTGGGCACGTGTGACT
TCTTGCACGTGGTGCG
GGAATCACGTGGGTTA
TGGGCCACGTGACGGT
TTGAGCACGTGTGTTT

Relative binding free energy, -0.27 kcal/mol:
AGTCGCACGTGGGTGG

Relative binding free energy, 0.42 kcal/mol:
ATGGTCACGTGAATCT

Relative binding free energy, -0.16 kcal/mol:
TTGAGCACGTGGTATT
TTATGCACGTGGGGGG
GGTAACACGTGGGCAG
ATAGGCACGTGATCGT

Relative binding free energy, -0.17 kcal/mol:
ATTGCCACGTGCGGTT
TGGGGCACGTGTCCAG
CTGGGCACGTGGGATA

Relative binding free energy, 0.26 kcal/mol:
GTTTTCACGTGGGGCA
AATGTCACGTGGACTG
TAATTCACGTGTTGGT
TATGTCACGTGAGCGG
GAGTCCACGTGGAAGG
AAGTTCACGTGGTTTA
GTCATCACGTGAGTTT
TGGTTCACGTGCGTTT
GATGACACGTGAGGTA

Relative binding free energy, 0.14 kcal/mol:
GAGTCCACGTGGGTTT
CTATGCACGTGATGTG
AGTCACACGTGGTGCG
TAGATCACGTGTTTTA

Relative binding free energy, 0.17 kcal/mol:
GGTCGCACGTGTGAAG
GTTTACACGTGATCGG

Relative binding free energy, 0.23 kcal/mol:
TAGAACACGTGATGTT
TTGTTCACGTGAGCGG
GTTTTCACGTGATCAG
TAGCTCACGTGTTTAT
CGGGGCACGTGAAAGC

Relative binding free energy, 0.18 kcal/mol:
TGTGTCACGTGAGGAA
GAGTACACGTGTGGTA
AATGTCACGTGATGGC

Relative binding free energy, -0.22 kcal/mol:
GTTACCACGTGGGGGG
TAAGGCACGTGGTCTT

Relative binding free energy, -0.13 kcal/mol:
ATTCGCACGTGGTCGG

Relative binding free energy, 0.21 kcal/mol:
TAGTTCACGTGTTGTA
TGGATCACGTGTGGAA
TACTTCACGTGTTTTA
TTATTCACGTGGTTAT
AAGTGCACGTGAATAG
GCTAGCACGTGTTATT

Relative binding free energy, 0.43 kcal/mol:
AGTTTCACGTGAGAAT
CTGTACACGTGAAAGT

Relative binding free energy, -0.2 kcal/mol:
TGCGGCACGTGGGGAC

Relative binding free energy, 0.13 kcal/mol:
TATGTCACGTGTAGAT
GGGCACACGTGTGGAG
TGGTACACGTGGGAAT
AGGGTCACGTGGTTAC
TGTTACACGTGTTCTT
CTTTTCACGTGTTTGT

Relative binding free energy, 0.09 kcal/mol:
TGTATCACGTGTATGC
TGTCACACGTGTAGTG

Relative binding free energy, 0 kcal/mol:
TGGGTCACGTGTAGCC
TATATCACGTGGTCTT
CCAGGCACGTGTGGGC
CGTGTCACGTGTTAGG
GCAAGCACGTGGCTGG
TGTTCCACGTGTCAGG
